Data: patent US20110059095A1
Where a chain is given by its changes, count along the chain named. Results are given in words; binding and its absence hold for the method and conditions named. Some results given as binding are weak or reduced against the parent protein; the word gives no strength. Blank lines part the entries; values can stand above or below the binder they belong to.

How the values were obtained:
[1] = biological target: T1, Peptide G (rat PAR-2), N-terminal biotinylated (Rat (Rattus norvegicus)); experiment: peptide ELISA titration; ELISA titration, antibody 13.3 nM to 0.22 pM, sigmoidal fit
T1 sequence (peptide, N-terminal biotin via G4S linker): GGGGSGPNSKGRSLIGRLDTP

[2] = biological target: T1, Peptide G (rat PAR-2), N-terminal biotinylated (Rat (Rattus norvegicus)); experiment: SPR, peptide immobilized; SPR, low-density (<1RU) surface of biotinylated peptide
[3] = biological target: T2, Peptide F (monkey PAR-2), N-terminal biotinylated (Monkey (Macaca mulatta)); experiment: peptide ELISA
T2 sequence (peptide, N-terminal biotin via G4S linker): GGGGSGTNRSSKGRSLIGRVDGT

[4] = biological target: T3, Peptide G (rat PAR-2), C-terminal biotinylated (Rat (Rattus norvegicus)); experiment: peptide ELISA titration; ELISA titration, antibody 13.3 nM to 0.22 pM, sigmoidal fit
T3 sequence (peptide, C-terminal biotin via G4S linker): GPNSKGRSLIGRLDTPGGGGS

[5] = biological target: T4, Peptide E (mouse PAR-2), N-terminal biotinylated (Mouse (Mus musculus)); experiment: peptide ELISA titration; ELISA titration, antibody 13.3 nM to 0.22 pM on peptide-coated plate
T4 sequence (peptide, N-terminal biotin via G4S linker): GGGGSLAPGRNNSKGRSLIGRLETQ

- binding [1]: no binding (tested: EC50 >50 nM)
- binding [2]: no binding
- binding [3]: binds
B1: H4H588N (antibody, human IgG4, V domains shown)
VH: EVQLLESGGGLVQPGGSLRLSCAASGFTFSSYAMTWVRQAPGKGLYWVSAISGGRGSAYYADSVKGRFTISRDNSKNTLYLQMNSLRAEDTAVYYCAKEGDSGYDLAYWGRGTLVTVSS
VL: DIQMTQSPSSLSASVGDRVTITCRARQGISNNLAWLQQKPGKAPKSLIYAASSLQSGIPSKFSGSGSGTYFTLTISSLQPEDFATYYCQQYKSSPLTFGGGTKVEIK

- binding [1]: no binding (tested: EC50 >50 nM)
- binding [4]: no binding (tested: EC50 >50 nM)
- binding [5]: no binding (tested: EC50 >50 nM)
- binding [3]: binds
B2: H4H591N (antibody, human IgG4, V domains shown)
VH: EVQLLESGGGLVQPGGSLRLSCATSGFTFSRYTMTWVRQAPGKGLFWVSGIGGSGGRAYYADSVKGRFTLSRDNSKNTLYLQMNSLRAEDTAVYYCAKEGDSGYDLDYWGRGTLVTVSS
VL: B1 VL with S7Y, N32Y, S56R, I58V, Y70D, F83S, S93I

- binding [3]: binds
B3: H4H618N (antibody, human IgG4, V domains shown)
VH: EVQLLESGGGLVQPGGSLRLSCAASGFTFRSYTMTWVRQAPGKGLDWVSGITDSGAGTYYGDSVKGRFTISRDNSKNTLYLQMNSLRAEDTAVYYCVKEGDSGYDLDYWGQGTLVTVSS
VL: B1 VL with R26S, N31T, N32Y, A51T, I58V, G66R, Y70D
